Measured values as given in the supplement of paper PMC11741623.
This is one part of the list. Interaction screen of human proteins with wild-type SARS-CoV-2 proteins by split-DHFR complementation in yeast, 1 µg/mL methotrexate. Value = fitness of the pair (three or more lineages) minus that of the viral protein without a human partner, on a scale set by negative (0) and fused positive (1) controls, mean of up to three cultures; higher = more likely to interact. Active = false discovery rate below 0.05 (one-sided t-test) in at least one culture. Nearly all pairs are not hits, and differences among them are mostly noise (correlation between cultures about 0.3); most hits were seen in one culture only. Human sequences are the Swiss-Prot entries looked up by gene name; the clone may be another isoform. NSP2 values were corrected by the authors for a growth advantage. Listed are human proteins with a hit and a random twelfth of the others.

Assays:
Assay in all cases: yeast fitness gain over the viral ORF with no human partner (scaled fitness); higher = more likely to interact
SARS-CoV-2 E = system: SARS-CoV-2 E
Protocol: (§1)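 Split mouse DHFR complementation in pooled diploid yeast: human ORFeome clones carry one fragment and viral ORFs the other; barcoded lineages compete in 1 µg/mL methotrexate and fitness is read by barcode sequencing in up to three cultures.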

SARS-CoV-2 M = system: SARS-CoV-2 M
Protocol: as §1

SARS-CoV-2 NSP10 = system: SARS-CoV-2 NSP10
Protocol: as §1

SARS-CoV-2 NSP13 = system: SARS-CoV-2 NSP13
Protocol: as §1

SARS-CoV-2 NSP14 = system: SARS-CoV-2 NSP14
Protocol: as §1

SARS-CoV-2 NSP15 = system: SARS-CoV-2 NSP15
Protocol: as §1

SARS-CoV-2 NSP16 = system: SARS-CoV-2 NSP16
Protocol: as §1

SARS-CoV-2 NSP1 = system: SARS-CoV-2 NSP1
Protocol: as §1

SARS-CoV-2 NSP2 = system: SARS-CoV-2 NSP2
Protocol: as §1

SARS-CoV-2 NSP4 = system: SARS-CoV-2 NSP4
Protocol: as §1

SARS-CoV-2 NSP5 = system: SARS-CoV-2 NSP5
Protocol: as §1

SARS-CoV-2 NSP6 = system: SARS-CoV-2 NSP6
Protocol: as §1

SARS-CoV-2 NSP7 = system: SARS-CoV-2 NSP7
Protocol: as §1

SARS-CoV-2 NSP8 = system: SARS-CoV-2 NSP8
Protocol: as §1

SARS-CoV-2 NSP9 = system: SARS-CoV-2 NSP9
Protocol: as §1

SARS-CoV-2 N = system: SARS-CoV-2 N
Protocol: as §1

SARS-CoV-2 ORF10 = system: SARS-CoV-2 ORF10
Protocol: as §1

SARS-CoV-2 ORF3A = system: SARS-CoV-2 ORF3A
Protocol: as §1

SARS-CoV-2 ORF3B = system: SARS-CoV-2 ORF3B
Protocol: as §1

SARS-CoV-2 ORF6 = system: SARS-CoV-2 ORF6
Protocol: as §1

SARS-CoV-2 ORF7A = system: SARS-CoV-2 ORF7A
Protocol: as §1

SARS-CoV-2 ORF7B = system: SARS-CoV-2 ORF7B
Protocol: as §1

SARS-CoV-2 ORF8 = system: SARS-CoV-2 ORF8
Protocol: as §1

SARS-CoV-2 S = system: SARS-CoV-2 S
Protocol: as §1

Measured: yeast fitness gain

IHH, Q14623
inactive: SARS-CoV-2 E -0.0417 | SARS-CoV-2 M 0.0808 | SARS-CoV-2 NSP10 = 0.0182 | SARS-CoV-2 NSP13 = 0.0264 | SARS-CoV-2 NSP14 = 0.0723 | SARS-CoV-2 NSP15 = -0.00266 | SARS-CoV-2 NSP16 = -0.0365 | SARS-CoV-2 NSP1 = 0.0586 | SARS-CoV-2 NSP2 = -0.0287 | SARS-CoV-2 NSP4 = 0.0616 | SARS-CoV-2 NSP5 = 0.00361 | SARS-CoV-2 NSP6 = 0.0232 | SARS-CoV-2 NSP7 = 0.0375 | SARS-CoV-2 NSP8 = 0.00317 | SARS-CoV-2 NSP9 = 0.0671 | SARS-CoV-2 N 0.0669 | SARS-CoV-2 ORF10 = 0.00256 | SARS-CoV-2 ORF3A 0.0566 | SARS-CoV-2 ORF3B 0.0194 | SARS-CoV-2 ORF6 = 0.047 | SARS-CoV-2 ORF7A 0.0184 | SARS-CoV-2 ORF7B 0.0381 | SARS-CoV-2 ORF8 = -0.00131 | SARS-CoV-2 S 0.124

HSPB7, Q9UBY9
inactive: SARS-CoV-2 M 0.0153 | SARS-CoV-2 NSP10 = -0.0707 | SARS-CoV-2 NSP13 = -0.116 | SARS-CoV-2 NSP15 = -0.0905 | SARS-CoV-2 NSP16 = -0.0748 | SARS-CoV-2 NSP1 = 0.0253 | SARS-CoV-2 NSP2 = -0.166 | SARS-CoV-2 NSP5 = -0.0754 | SARS-CoV-2 NSP6 = -0.0106 | SARS-CoV-2 NSP7 = -0.0791 | SARS-CoV-2 NSP8 = 0.0883 | SARS-CoV-2 ORF10 = 0.0632 | SARS-CoV-2 ORF3B 0.0212 | SARS-CoV-2 ORF6 = 0.0566 | SARS-CoV-2 ORF7A 0.0582 | SARS-CoV-2 ORF7B -0.0423 | SARS-CoV-2 ORF8 = -0.0628 | SARS-CoV-2 S -0.0261

ZNF785, A8K8V0
inactive: SARS-CoV-2 E -0.151 | SARS-CoV-2 M 0.00873 | SARS-CoV-2 NSP10 = 0.0149 | SARS-CoV-2 NSP13 = -0.00691 | SARS-CoV-2 NSP14 = -0.0206 | SARS-CoV-2 NSP15 = -0.0283 | SARS-CoV-2 NSP16 = -0.0104 | SARS-CoV-2 NSP1 = -0.0822 | SARS-CoV-2 NSP2 = -0.182 | SARS-CoV-2 NSP4 = -0.0398 | SARS-CoV-2 NSP5 = 0.0521 | SARS-CoV-2 NSP6 = -0.0402 | SARS-CoV-2 NSP7 = -0.00403 | SARS-CoV-2 NSP8 = 0.0255 | SARS-CoV-2 NSP9 = 0.0453 | SARS-CoV-2 N -0.0503 | SARS-CoV-2 ORF10 = 0.013 | SARS-CoV-2 ORF3A 0.0299 | SARS-CoV-2 ORF3B 0.0164 | SARS-CoV-2 ORF6 = -0.0148 | SARS-CoV-2 ORF7A 0.0341 | SARS-CoV-2 ORF7B -0.0488 | SARS-CoV-2 ORF8 = 0.0417 | SARS-CoV-2 S 0.0229

MAGEA10, P43363
inactive: SARS-CoV-2 E -0.00264 | SARS-CoV-2 M 0.101 | SARS-CoV-2 NSP10 = 0.0595 | SARS-CoV-2 NSP13 = 0.0776 | SARS-CoV-2 NSP16 = 0.0125 | SARS-CoV-2 NSP1 = 0.0876 | SARS-CoV-2 NSP2 = -0.0195 | SARS-CoV-2 NSP5 = 0.0184 | SARS-CoV-2 NSP6 = -0.0302 | SARS-CoV-2 NSP7 = 0.0678 | SARS-CoV-2 NSP8 = -0.0188 | SARS-CoV-2 NSP9 = 0.0467 | SARS-CoV-2 N -0.00522 | SARS-CoV-2 ORF10 = -0.0211 | SARS-CoV-2 ORF3B -0.0306 | SARS-CoV-2 ORF6 = -0.00523 | SARS-CoV-2 ORF7A 0.0851 | SARS-CoV-2 ORF7B -0.0187 | SARS-CoV-2 ORF8 = 0.00384 | SARS-CoV-2 S -0.0294

HEATR1, Q9H583
inactive: SARS-CoV-2 M -0.0191 | SARS-CoV-2 NSP10 = 0.048 | SARS-CoV-2 NSP13 = 0.0154 | SARS-CoV-2 NSP14 = -0.125 | SARS-CoV-2 NSP15 = -0.332 | SARS-CoV-2 NSP16 = -0.049 | SARS-CoV-2 NSP1 = 0.0423 | SARS-CoV-2 NSP4 = 0.154 | SARS-CoV-2 NSP5 = 0.00227 | SARS-CoV-2 NSP6 = -0.102 | SARS-CoV-2 NSP7 = 0.00132 | SARS-CoV-2 NSP8 = -0.104 | SARS-CoV-2 NSP9 = -0.0233 | SARS-CoV-2 ORF10 = 0.0168 | SARS-CoV-2 ORF3A -0.0458 | SARS-CoV-2 ORF3B -0.0279 | SARS-CoV-2 ORF6 = 0.039 | SARS-CoV-2 ORF7A 0.0786 | SARS-CoV-2 ORF7B -0.0138 | SARS-CoV-2 ORF8 = 0.00425 | SARS-CoV-2 S 0.0198
